Hit rate of the full screen: of about 410,000 compounds, about 6,400 (1.6%) were called active. The inconclusive results got no clear call from the source; some entries with a clear call stand among them for comparison. Calls come from the whole dose curve; as a rule, active = well fitted inhibition curve with a large enough effect; inconclusive = small, poorly fitted or top-dose-only effect; inactive = no such curve, though single readings can be large or run the other way. No potency is given beside an inconclusive call; the fits are too rough.
target: Glucagon-like peptide 1 receptor (Homo sapiens) (UniProt P43220); experiment: qHTS of GLP-1 Receptor Inverse Agonists (Inhibition Mode); conditions: HEK293 GLP-1R CRE-luciferase, luminescence, 24 h, GLP-1R form is constitutively active; activity change, negative = inhibition: at 38.3 µM (top of the series) unless noted; note: nearly all actives have a fitted effect of over 55% in size
UniProt P43220, sequence (P43220 whole entry, looked up): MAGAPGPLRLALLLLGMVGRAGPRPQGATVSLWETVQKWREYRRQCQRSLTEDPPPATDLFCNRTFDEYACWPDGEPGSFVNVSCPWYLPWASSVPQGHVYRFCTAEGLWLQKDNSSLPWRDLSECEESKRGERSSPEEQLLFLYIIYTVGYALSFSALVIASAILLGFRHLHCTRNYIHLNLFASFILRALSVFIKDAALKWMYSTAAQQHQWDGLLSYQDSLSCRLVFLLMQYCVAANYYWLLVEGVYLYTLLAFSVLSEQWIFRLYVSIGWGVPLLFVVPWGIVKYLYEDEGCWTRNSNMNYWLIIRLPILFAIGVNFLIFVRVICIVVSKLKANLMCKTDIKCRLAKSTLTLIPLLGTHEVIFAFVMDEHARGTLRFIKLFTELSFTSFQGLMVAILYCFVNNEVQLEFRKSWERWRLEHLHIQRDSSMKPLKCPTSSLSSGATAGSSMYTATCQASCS
Method in brief: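 Inverse agonism was detected as reduced cAMP-driven luciferase luminescence after 24 h compound treatment. The cells were HEK293 clones expressing constitutively active human GLP-1R with the reporter. Reporter-only and GPR119 cell lines served as counterscreen controls.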
% is set by controls: 0 for no effect and ±100 for the full control effect; potency is the fitted concentration of half-maximal effect; tags give direction and shape of the fitted curve.

Question: For `CC(=O)N(C)c1ccc(NC(=O)Nc2ccc(Cl)cc2)cc1`, which Potency is on record?
Answer: Its Potency is inconclusive [inhibitor, single point].

Question: `COc1cccc(Oc2coc3c(CN4CCOCC4)c(O)ccc3c2=O)c1` was tested. Which “activity change, negative = inhibition” value did it give?
Answer: Its value is inactive: -12.5%.

Question: With `CCCCn1nc(C(=O)NCC(=O)Nc2c(C)cccc2C)c2ccccc2c1=O` as the molecule, how does the Potency read?
Answer: The Potency was inconclusive [inhibitor, full curve, poor fit].

Question: `Cc1ccc(CNC(=O)C(=O)NCC(c2ccc3c(c2)OCO3)N2CCOCC2)cc1` (configuration not stated) was tested. Which “activity change, negative = inhibition” value did it give?
Answer: The value was inactive: 2.65%.

Question: Which Potency does the source give for `COc1ccc(NC(=O)/C(Cl)=C(/Cl)S(=O)(=O)Cc2ccc(C)cc2)cn1` here?
Answer: The Potency was inconclusive [inhibitor, full curve, poor fit].

Question: With `CC1CCN(C(c2nnnn2CCc2ccccc2)C(C)C)CC1` (configuration not stated) as the molecule, how does the Potency read?
Answer: Its Potency is inconclusive [inhibitor, partial curve, poor fit].

Question: Which “activity change, negative = inhibition” value does the source give for `Cc1ccc2c(=O)cc(C(=O)Nc3c(C)n(C)n(-c4ccccc4)c3=O)oc2c1` here?
Answer: Its value is inactive: 9.54%.

Question: How did the “activity change, negative = inhibition” value turn out when `CC1Cc2ccccc2N1C(=O)Cn1cc([N+](=O)[O-])cn1` (configuration not stated) was run?
Answer: The value was inactive: 10.3%.

Question: Which “activity change, negative = inhibition” value does the source give for `Cc1ccc(NC(=O)COc2cccc(/C=C3\SC(=S)N(CCC(=O)O)C3=O)c2)cc1Cl` here?
Answer: The value was inactive: -18.8%.

Question: For `O=C(CC1C(=O)NCCN1CC1CCCCC1)NCCc1ccc(F)cc1` (configuration not stated), which Potency is on record?
Answer: Its Potency is inconclusive [inhibitor, single point].

Question: With `c1ccc(-n2cc(CNCCc3cscn3)c(-c3ccc4c(c3)OCO4)n2)cc1` as the molecule, how does the Potency read?
Answer: Its Potency is inconclusive [inhibitor, single point].

Question: Which Potency does the source give for `O=C(N/C(=C\c1ccccc1)C(=O)N1CCCCC1)c1ccc(Br)o1` here?
Answer: The Potency was active: 10 µM.

Question: With `CN(c1ccc(C(=O)Nc2ccc(Cl)cn2)cc1)S(=O)(=O)c1ccccc1` as the molecule, how does the Potency read?
Answer: Its Potency is inconclusive [inhibitor, single point].

Question: `CN(C(=O)c1nn(C)c2c1CSc1ccccc1-2)c1ccccc1Cl` was tested. Which Potency did it give?
Answer: Its Potency is inconclusive [inhibitor, partial curve].

Question: Which “activity change, negative = inhibition” value does the source give for `COc1cc2c(c(OC)c1)C(c1cccc(F)c1F)CC(=O)N2` (configuration not stated) here?
Answer: The value was inactive: -7.54%.

Question: How did the Potency turn out when `COc1cccc(CN2CCN(Cc3ccccc3C(F)(F)F)CC2)c1` was run?
Answer: Its Potency is inconclusive [inhibitor, single point].

Question: With `COC(=O)c1ccc(NC(=O)[C@H](C)NC(N)=O)cc1` as the molecule, how does the “activity change, negative = inhibition” value read?
Answer: The value was inactive: 0.993%.

Question: `NNC(=O)c1ccc(OCC2CC(c3ccc(Cl)cc3)=NO2)cc1` (configuration not stated) was tested. Which Potency did it give?
Answer: Its Potency is active: 12.6 µM.

Question: `O=C(N/N=C/c1cc(Br)c(Br)o1)c1ccc2c(c1)OCCO2` was tested. Which Potency did it give?
Answer: The Potency was inconclusive [inhibitor, single point].

Question: With `COc1cc(OC)c(OC)cc1/C=C/c1nc2cc3ccccc3cc2c(=O)n1-c1ccccc1Br` as the molecule, how does the “activity change, negative = inhibition” value read?
Answer: The value was inactive: 6.04%.

Question: How did the Potency turn out when `COc1ccc(-n2cc(CNCC3CC(=O)N(C4CC4)C3)c(-c3ccccc3Cl)n2)cc1` (configuration not stated) was run?
Answer: The Potency was inconclusive [inhibitor, partial curve, poor fit].

Question: `CC(=O)Nc1ccccc1-c1nc2ccccc2n(C(C)C(=O)Nc2ccccc2C(F)(F)F)c1=O` (configuration not stated) was tested. Which “activity change, negative = inhibition” value did it give?
Answer: The value was inactive: -12.6%.

Question: `Cn1c(NCc2ccccc2)nc2c1c(=O)n(Cc1ccccc1)c(=O)n2C` was tested. Which Potency did it give?
Answer: Its Potency is inconclusive [inhibitor, partial curve, poor fit].

Question: How did the Potency turn out when `CCOc1c(Br)cc(CNc2ccc3c(c2)OCCO3)cc1OC` was run?
Answer: Its Potency is inconclusive [inhibitor, full curve, poor fit].

Question: With `COc1ccc(OCC(=O)NCCC2=CCCCC2)c([N+](=O)[O-])c1` as the molecule, how does the Potency read?
Answer: The Potency was inconclusive [inhibitor, single point].

Question: How did the “activity change, negative = inhibition” value turn out when `CCn1cc2nc(SCc3ccccc3Cl)n(Cc3ccc(OC)cc3)c(=O)c2n1` was run?
Answer: Its value is inactive: -3.87%.

Question: For `CC(NC(=O)c1cc(S(=O)(=O)N2CCOCC2)ccc1N1CCCC1)c1ccc(Cl)c(Cl)c1` (configuration not stated), which Potency is on record?
Answer: Its Potency is inconclusive [inhibitor, single point].

Question: `CC1CCN(CC(=O)Nc2ccccc2Sc2ccccc2)CC1` was tested. Which Potency did it give?
Answer: The Potency was active: 4.47 µM.

Question: With `COc1cccc(NC(=O)NCc2c(-c3ccccc3)noc2C)c1` as the molecule, how does the Potency read?
Answer: The Potency was inconclusive [inhibitor, partial curve, poor fit].

Question: For `CCS(=O)(=O)c1ccc2oc(SCC(=O)NC3CCCC(C)C3C)nc2c1` (configuration not stated), which Potency is on record?
Answer: Its Potency is inconclusive [inhibitor, partial curve].

Question: With `O=C(Nc1ccc2c(c1)CCCN2C(=O)c1ccco1)c1cc([N+](=O)[O-])ccc1Cl` as the molecule, how does the Potency read?
Answer: Its Potency is inconclusive [inhibitor, partial curve, poor fit].

Question: How did the Potency turn out when `O=C(Nc1ccccc1)Nc1cccc(C(F)(F)F)c1` was run?
Answer: The Potency was inconclusive [inhibitor, single point].

Question: With `COC(=O)C(C(=O)OC)c1ccccc1NC(=O)OCc1ccccc1` as the molecule, how does the Potency read?
Answer: The Potency was inconclusive [inhibitor, partial curve, poor fit].

Question: `COc1ccc(NC(=O)C(=O)NCCc2csc3nc(-c4ccccc4F)nn23)cc1OC` was tested. Which “activity change, negative = inhibition” value did it give?
Answer: Its value is inactive: 13.3%.

Question: For `CCOC(=O)Cn1nc(C)c(NC(=O)c2ccc(Cl)c([N+](=O)[O-])c2)c1C`, which Potency is on record?
Answer: The Potency was inconclusive [inhibitor, single point].

Question: How did the Potency turn out when `Fc1ccccc1C(c1nnnn1Cc1ccc2c(c1)OCO2)N1CCN(Cc2ccco2)CC1` (configuration not stated) was run?
Answer: The Potency was inconclusive [inhibitor, single point].

Question: For `Cc1noc(C)c1S(=O)(=O)N(CC(=O)Nc1ccc(F)cc1F)c1ccc(C(C)C)cc1`, which Potency is on record?
Answer: The Potency was inconclusive [inhibitor, partial curve, poor fit].

Question: Which Potency does the source give for `CC1=CC(C)(C)NC(=S)N1c1ccc(Cl)cc1` here?
Answer: Its Potency is inconclusive [inhibitor, single point].

Question: Which Potency does the source give for `COc1ccc(Cn2ccc3nc(C)c(C(=O)Nc4cccc(SC)c4)cc3c2=O)cc1` here?
Answer: Its Potency is inconclusive [inhibitor, partial curve, poor fit].

Question: With `Oc1c(C(Nc2ccccn2)c2ccccc2F)ccc2cccnc12` (configuration not stated) as the molecule, how does the Potency read?
Answer: Its Potency is inconclusive [inhibitor, full curve, poor fit].

Question: With `COc1ccc(C)cc1NC(=O)c1ccc(CN2CCN(c3ccccc3)CC2)cc1` as the molecule, how does the Potency read?
Answer: Its Potency is inconclusive [inhibitor, single point].

Question: Which Potency does the source give for `O=C(O)c1ccccc1Sc1c([N+](=O)[O-])cc(C(F)(F)F)cc1[N+](=O)[O-]` here?
Answer: Its Potency is inconclusive [inhibitor, partial curve, poor fit].

Question: How did the Potency turn out when `Cc1ccc(-c2noc(CCCC(=O)NC3CCCCC3)n2)cc1` was run?
Answer: The Potency was inconclusive [inhibitor, single point].

Question: For `Cc1cc(Br)cn2c(Cc3ccccc3)c(-c3cccc(Br)c3)nc12`, which Potency is on record?
Answer: The Potency was inconclusive [inhibitor, partial curve, poor fit].

Question: How did the Potency turn out when `CCN1CCN(c2oc(-c3ccc(COc4ccccc4C)o3)nc2C#N)CC1` was run?
Answer: Its Potency is inconclusive [inhibitor, partial curve, poor fit].

Question: For `CC(NCCOCCOc1ccccc1)c1ccccc1` (configuration not stated), which Potency is on record?
Answer: The Potency was inconclusive [inhibitor, single point].

Question: For `C[C@H](CO)N1C[C@H](C)[C@H](CN(C)CC2CCCCC2)Oc2ccc(NS(=O)(=O)c3ccc(F)cc3)cc2CC1=O`, which Potency is on record?
Answer: The Potency was inconclusive [inhibitor, single point].

Question: Which Potency does the source give for `O=C(c1cccc(NS(=O)(=O)c2ccccc2)c1)N1CCN(c2ccccc2)CC1` here?
Answer: The Potency was inconclusive [inhibitor, partial curve, poor fit].

Question: With `O=C1c2cccc3cccc(c23)C(=O)N1CC1CCN(CC(O)COCc2ccc3c(c2)OCO3)CC1` (configuration not stated) as the molecule, how does the Potency read?
Answer: The Potency was inconclusive [inhibitor, full curve, poor fit].

Question: Which Potency does the source give for `CCN(CC)P(=O)(Nc1ccccc1Br)c1ccc(N(C)C)cc1NC(=O)c1ccco1` (configuration not stated) here?
Answer: Its Potency is inconclusive [inhibitor, full curve, poor fit].

Question: With `CCN(CC)CCNC(=O)c1ccc(NC(=O)C2CCN(c3ncnc4sc(C)c(C)c34)CC2)cc1` as the molecule, how does the Potency read?
Answer: Its Potency is inconclusive [inhibitor, full curve, poor fit].

Question: Which Potency does the source give for `COc1ccc(Nc2c3c(nc4ccc(C)cc24)CCC3)cc1` here?
Answer: The Potency was inconclusive [inhibitor, partial curve, poor fit].

Question: Which Potency does the source give for `Cc1cccc(N(Cc2ccccc2)C(=O)CN2C(=O)NC3(CCCC3)C2=O)c1` here?
Answer: The Potency was inconclusive [inhibitor, partial curve, poor fit].

Question: Which Potency does the source give for `CCOc1c(Cl)cc(CNc2ccc(N3CCCC3)cc2)cc1OC` here?
Answer: The Potency was inconclusive [inhibitor, partial curve, poor fit].

Question: For `O=C(c1cccc(S(=O)(=O)N2CCc3ccccc32)c1)N1CCN(c2ccccn2)CC1`, which Potency is on record?
Answer: The Potency was inconclusive [inhibitor, partial curve].

Question: Which Potency does the source give for `Cc1ccc(C(=O)NCCSC2CCCCC2)cc1S(=O)(=O)Nc1ccccc1` here?
Answer: Its Potency is active: 11.2 µM.

Question: With `COc1cc(NC(=O)C2=C(N3CCOCC3)/C(=C\c3ccc(N(C)C)cc3)CCC2)cc(OC)c1OC` as the molecule, how does the Potency read?
Answer: The Potency was inconclusive [inhibitor, partial curve, poor fit].

Question: Which “activity change, negative = inhibition” value does the source give for `COc1ccccc1N1CCN(C(=O)CN2C(=O)COc3ccc(S(=O)(=O)N4CCOCC4)cc32)CC1` here?
Answer: The value was inactive: 10.3%.

Question: With `CC1=C/C(=N\S(=O)(=O)c2ccccc2)C(C(C)C)=CC1=O` as the molecule, how does the Potency read?
Answer: Its Potency is inconclusive [inhibitor, partial curve, poor fit].

Question: For `CCOC(=O)C1(CC2CCCCO2)CCN(Cc2nc(C(C)C)cs2)CC1` (configuration not stated), which Potency is on record?
Answer: The Potency was inconclusive [inhibitor, partial curve, poor fit].

Question: Which Potency does the source give for `O=C(NCCc1c[nH]c2ccccc12)c1ccc(F)cc1F` here?
Answer: The Potency was inconclusive [inhibitor, single point].

Question: How did the Potency turn out when `O=C(OCC(=O)C12CC3CC(CC(C3)C1)C2)c1ccc(O)cc1` was run?
Answer: Its Potency is inconclusive [inhibitor, partial curve, poor fit].

Reference: PubChem BioAssay AID624417 (National Center for Advancing Translational Sciences (NCATS), 2012)
